These results are taken from paper PMC12136788.

The other results are listed elsewhere or left out.

B1: chr12:39763582:39763583:-_ENSG00000139116_ENST00000544797|hu_mus|hu_hu_hu_mus_False|8_58 (ssRNA)
RNA: GGGAGUUCUACAGUCCGACGAUCCUCUAGGAACUGGGCAUUCACUUUGAAUUCAGGAGGGGGCAGCCCGUUUUUAAUUGCUAUGUGCUUUUUCUCAUCAAUACUCUUGAACAGGUGUCUAACAGCACGAGAAAUAAUGCCCUGCAACAGAGGAUUGAGCAUCA
B2: chr17:30526466:30526467:+_ENSG00000126858_ENST00000394692|hu_mus|FALSE|FALSE (ssRNA)
RNA: GGGAGUUCUACAGUCCGACGAUCGUAAGGAAAAACUUGAAAUAAAUCUUUAAGUUCAUCAGGCGACAAAGCACAGUCUCUGUCCAAAUCAUGUUUGUCAAAGGUGCUCUGGAGAAACAAAUAUGCAUGAUGAUUUAAUUCAGUCAACAGAGGAUUGAGCAUCA
B3: chr2:232320318:232320319:-_ENSG00000115053_ENST00000322723|hu_hu|hu_hu_hu_mus_True|18_68 (ssRNA)
RNA: GGGAGUUCUACAGUCCGACGAUCACUAUUAAAGUCUACAAAACCAAACCCUUUGGAAGAACCAGUUUCCCGGUCAGUGACUAUUCUUGCACGAACAGAGCCCUCAAAUGAUUCUUUUAAUGUCUCUUCAGUGGUAUCCUCAGACAACAGAGGAUUGAGCAUCA
B4: 7343312_7343432_582_5pUTR_ENSMUSG00000024968_ENSMUST00000066646|mouse|control|control (ssRNA)
RNA: GGGAGUUCUACAGUCCGACGAUCGAGGGGCACGGGAUCCUUUGGAGAGCGCAGGAGCUUGCCGCGCUUGCCUCGAGUGCUGCGCCUGGCCCGGCCUGGAGGGGUCGCCACUGAGGCUACGAGAGGCAGGAGGUCAGCGUGGCUCAACAGAGGAUUGAGCAUCA
B5: chr7:54825262:54825263:-_ENSG00000132432_ENST00000352861|hu_hu|hu_hu_hu_mus_False|38_108 (ssRNA)
RNA: GGGAGUUCUACAGUCCGACGAUCCUGACUUGGCUCAUCCACAAACUGCAUUACCUGAUCCAUGUUUGUUGGAUGGCGGAUUGAGAGCGUAGAGACAACGUAGCACUGAGAGAACCGAGCCCAACGGAACCGGAAGCUGGCAACCAACAGAGGAUUGAGCAUCA
B6: chr8:104075188:104075189:+_ENSG00000155097_ENST00000518738|hu_hu|FALSE|FALSE (ssRNA)
RNA: GGGAGUUCUACAGUCCGACGAUCCUUCCUAAACAAGGUGACAUUACACAGGUAACUGUCUUGGUCCUCUGAAAGAACAUUGCUAGACCUUGGAACUACCAUUUCGGCUAGUGUUUCAUACUGCUUAAUCCAGUCGUUGUGGUUCAACAGAGGAUUGAGCAUCA
B7: chr3:10015032:10015033:+_ENSMUSG00000027533_ENSMUST00000029046|mus_mus|mus_mus_mus_hu_True|48_78 (ssRNA)
RNA: GGGAGUUCUACAGUCCGACGAUCGUUUUUACCAUCACAAGUGAUGAUACAAUCUGGCUUGGCCAUGGCGCCCAUUUUUCGCAAAGCCAGUCCUACUCCUAGCUCCUUCAUGUAUUCAUCAAAGCCUUUGCUGUCCACCAGGCGCAACAGAGGAUUGAGCAUCA
B8: 122070067_122071345_590_CDS_ENSMUSG00000031835_ENSMUST00000081381|mouse|control|control (ssRNA)
RNA: GGGAGUUCUACAGUCCGACGAUCGCUUUUCAGAGCACUUGAAAUAAAUGAGUUUCUAGCUUUGGCUGUGAAGUAUCCGUUGAAAGCCACAAUAUAUUCGUACUCCACCACAGUUGAAGAGAAUUCCACCUUCAAAGUCAGGUGCAACAGAGGAUUGAGCAUCA
B9: 136544985_136548241_3180_CDS_ENSMUSG00000030213_ENSMUST00000032335|mouse|control|control (ssRNA)
RNA: GGGAGUUCUACAGUCCGACGAUCCUGCAACGGUCGAGACAUGGGCUGAGAAGUGCUCACAGUUGAUGAAGAAGGAGGACUUAUCUUCUUGGGGUCUUGUGUAGUUCCGCUCUCUUCAUCGUCCAUCGUGAGAUCAAUGACACCCAACAGAGGAUUGAGCAUCA
B10: chr4:169848332:169848333:+_ENSG00000129116_ENST00000507735|hu_hu|FALSE|FALSE (ssRNA)
RNA: GGGAGUUCUACAGUCCGACGAUCUUGCAUUUUCCUUCAUUCUCCUCCCUACUCCUUCCAAACCCCUGAUUCCUCCAAAUACUAUAUAUGCCUUGGUCAUUUGGGUGGUUUGGAUGCUUUCUGUGGAAUGAACUGUAAUAUAUUCAACAGAGGAUUGAGCAUCA
B11: chr7:7679991:7679992:-_ENSG00000106399_ENST00000396682|hu_hu|hu_hu_hu_mus_False|1_18 (ssRNA)
RNA: GGGAGUUCUACAGUCCGACGAUCUGGGAUGAAUCUUUUCCAGCUUCCCCACGAAGCACACGGGCCGGUCGAUAUACUGUGGUAACAUGCUGGCGUUGACGCGCGCUUUGGGGAGCUCCAUCAUGUCCUCCAUGAUUAUGGUCCCAACAGAGGAUUGAGCAUCA
B12: chr5:37680062:37680063:+_ENSMUSG00000029121_ENSMUST00000031004|mus_hu|mus_mus_mus_hu_False|48_78 (ssRNA)
RNA: GGGAGUUCUACAGUCCGACGAUCUUUGGGUGUAGCUGGUACCUCGUACACAGGACCAUCGUACAUGCCCCUGGAAACCCCUUGCAACCCGAAAACCUUAUUCCUGAUUUUGACGCGCUGGUACAGGUGCUCCGGGAACGCCUUCAACAGAGGAUUGAGCAUCA
B13: 45141516_45141636_2342_3pUTR_ENSMUSG00000022664_ENSMUST00000023344|mouse|control|control (ssRNA)
RNA: GGGAGUUCUACAGUCCGACGAUCAAGGUAAUGAUGUCAAGAUUUUGUAAAUGUACAAACCAAGGAUAGAGCAAACAAACAAACAAACAAACAAUUCUACAAUGGCUUAGGUGAAUUAAAAUACAAGUGCUAAGUAUGAUAACACAACAGAGGAUUGAGCAUCA
B14: chr9:58049150:58049151:-_ENSMUSG00000051243_ENSMUST00000114144|mus_mus|motif|central (ssRNA)
RNA: GGGAGUUCUACAGUCCGACGAUCACUUGCAGUGUGAUGCUGUGGGGCUGCGAGCCGGUCUCCAGACUCAGGUGACAGUCGGAGGGAGCUUCUGGCAUCUGUUGCCCGUCUUCAACCCUGCAGAACCCAGUGCCGGUCCAGACACAACAGAGGAUUGAGCAUCA

For this test, the target named is T1, UNK ZnF1-3 (human, UniProt Q9C0B0 31-174).
T1 sequence: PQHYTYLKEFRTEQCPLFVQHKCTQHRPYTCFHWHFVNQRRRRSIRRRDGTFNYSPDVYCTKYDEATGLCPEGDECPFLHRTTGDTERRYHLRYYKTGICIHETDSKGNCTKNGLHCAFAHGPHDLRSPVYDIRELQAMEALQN
Briefly: nsRBNS (natural sequence RNA bind-n-seq); RBNS binding buffer (assumed for nsRBNS): 25 mM Tris pH 7.5, 150 mM KCl, 3 mM MgCl2, 0.01% Triton X-100, 500 ug/ml BSA, 20 U/ml SUPERase-In, 4 C; UNK is unkempt and MSI1 is Musashi-1; names of the RNAs are library labels; protein concentration not given here; high values mean tight binding.
In the case of B1, the binding signal is 1.73 enrichment R.

B2 registered a binding signal of 1.04 enrichment R.

Regarding B3, the binding signal was 1 enrichment R.

For B4, the binding signal came to 0.766 enrichment R.

B5 returned a binding signal of 1.13 enrichment R.

In turn, B6 had a binding signal of 0.518 enrichment R.

B7 returned a binding signal of 0.731 enrichment R.

B8 returned a binding signal of 0.973 enrichment R.

Molecule B9 yielded a binding signal of 0.808 enrichment R.

For B10, the binding signal was 0.558 enrichment R.

Regarding B11, the binding signal stood at 0.802 enrichment R.

B12 returned a binding signal of 0.62 enrichment R.

For B13, the binding signal stood at 2.07 enrichment R.

As to B14, the binding signal worked out at 0.747 enrichment R.
